Substitutions are numbered along the chain they refer to. Like-named read-outs stand apart in the source and are kept apart here. No constants are given. Whether binding was seen depends on the method and setting. For some of these results: In cells and extracts the contact can be indirect. Some results given as binding are weak or reduced against the parent protein; the word gives no strength. For some of these results: Tags and fused reporters may be left off the sequences shown.
B1: EPS15 (epidermal growth factor pathway substrate 15) (natural protein, human (endogenous in HeLa), UniProt P42566 1-896, looked up)
chain: MAAAAQLSLTQLSSGNPVYEKYYRQVDTGNTGRVLASDAAAFLKKSGLPDLILGKIWDLADTDGKGILNKQEFFVALRLVACAQNGLEVSLSSLNLAVPPPRFHDTSSPLLISGTSAAELPWAVKPEDKAKYDAIFDSLSPVNGFLSGDKVKPVLLNSKLPVDILGRVWELSDIDHDGMLDRDEFAVAMFLVYCALEKEPVPMSLPPALVPPSKRKTWVVSPAEKAKYDEIFLKTDKDMDGFVSGLEVREIFLKTGLPSTLLAHIWSLCDTKDCGKLSKDQFALAFHLISQKLIKGIDPPHVLTPEMIPPSDRASLQKNIIGSSPVADFSAIKELDTLNNEIVDLQREKNNVEQDLKEKEDTIKQRTSEVQDLQDEVQRENTNLQKLQAQKQQVQELLDELDEQKAQLEEQLKEVRKKCAEEAQLISSLKAELTSQESQISTYEEELAKAREELSRLQQETAELEESVESGKAQLEPLQQHLQDSQQEISSMQMKLMEMKDLENHNSQLNWCSSPHSILVNGATDYCSLSTSSSETANLNEHVEGQSNLESEPIHQESPARSSPELLPSGVTDENEVTTAVTEKVCSELDNNRHSKEEDPFNVDSSSLTGPVADTNLDFFQSDPFVGSDPFKDDPFGKIDPFGGDPFKGSDPFASDCFFRQSTDPFATSSTDPFSAANNSSITSVETLKHNDPFAPGGTVVAASDSATDPFASVFGNESFGGGFADFSTLSKVNNEDPFRSATSSSVSNVVITKNVFEETSVKSEDEPPALPPKIGTPTRPCPLPPGKRSINKLDSPDPFKLNDPFQPFPGNDSPKEKDPEIFCDPFTSATTTTNKEADPSNFANFSAYPSEEDMIEWAKRESEREEEQRLARLNQQEQEDLELAIALSKSEISEA
notes: human EPS15, endogenous protein; also called native EPS15 dimer/tetramer

Sequences of proteins named here, by UniProt entry; tags and fusion partners are left off.
UniProt Q15811: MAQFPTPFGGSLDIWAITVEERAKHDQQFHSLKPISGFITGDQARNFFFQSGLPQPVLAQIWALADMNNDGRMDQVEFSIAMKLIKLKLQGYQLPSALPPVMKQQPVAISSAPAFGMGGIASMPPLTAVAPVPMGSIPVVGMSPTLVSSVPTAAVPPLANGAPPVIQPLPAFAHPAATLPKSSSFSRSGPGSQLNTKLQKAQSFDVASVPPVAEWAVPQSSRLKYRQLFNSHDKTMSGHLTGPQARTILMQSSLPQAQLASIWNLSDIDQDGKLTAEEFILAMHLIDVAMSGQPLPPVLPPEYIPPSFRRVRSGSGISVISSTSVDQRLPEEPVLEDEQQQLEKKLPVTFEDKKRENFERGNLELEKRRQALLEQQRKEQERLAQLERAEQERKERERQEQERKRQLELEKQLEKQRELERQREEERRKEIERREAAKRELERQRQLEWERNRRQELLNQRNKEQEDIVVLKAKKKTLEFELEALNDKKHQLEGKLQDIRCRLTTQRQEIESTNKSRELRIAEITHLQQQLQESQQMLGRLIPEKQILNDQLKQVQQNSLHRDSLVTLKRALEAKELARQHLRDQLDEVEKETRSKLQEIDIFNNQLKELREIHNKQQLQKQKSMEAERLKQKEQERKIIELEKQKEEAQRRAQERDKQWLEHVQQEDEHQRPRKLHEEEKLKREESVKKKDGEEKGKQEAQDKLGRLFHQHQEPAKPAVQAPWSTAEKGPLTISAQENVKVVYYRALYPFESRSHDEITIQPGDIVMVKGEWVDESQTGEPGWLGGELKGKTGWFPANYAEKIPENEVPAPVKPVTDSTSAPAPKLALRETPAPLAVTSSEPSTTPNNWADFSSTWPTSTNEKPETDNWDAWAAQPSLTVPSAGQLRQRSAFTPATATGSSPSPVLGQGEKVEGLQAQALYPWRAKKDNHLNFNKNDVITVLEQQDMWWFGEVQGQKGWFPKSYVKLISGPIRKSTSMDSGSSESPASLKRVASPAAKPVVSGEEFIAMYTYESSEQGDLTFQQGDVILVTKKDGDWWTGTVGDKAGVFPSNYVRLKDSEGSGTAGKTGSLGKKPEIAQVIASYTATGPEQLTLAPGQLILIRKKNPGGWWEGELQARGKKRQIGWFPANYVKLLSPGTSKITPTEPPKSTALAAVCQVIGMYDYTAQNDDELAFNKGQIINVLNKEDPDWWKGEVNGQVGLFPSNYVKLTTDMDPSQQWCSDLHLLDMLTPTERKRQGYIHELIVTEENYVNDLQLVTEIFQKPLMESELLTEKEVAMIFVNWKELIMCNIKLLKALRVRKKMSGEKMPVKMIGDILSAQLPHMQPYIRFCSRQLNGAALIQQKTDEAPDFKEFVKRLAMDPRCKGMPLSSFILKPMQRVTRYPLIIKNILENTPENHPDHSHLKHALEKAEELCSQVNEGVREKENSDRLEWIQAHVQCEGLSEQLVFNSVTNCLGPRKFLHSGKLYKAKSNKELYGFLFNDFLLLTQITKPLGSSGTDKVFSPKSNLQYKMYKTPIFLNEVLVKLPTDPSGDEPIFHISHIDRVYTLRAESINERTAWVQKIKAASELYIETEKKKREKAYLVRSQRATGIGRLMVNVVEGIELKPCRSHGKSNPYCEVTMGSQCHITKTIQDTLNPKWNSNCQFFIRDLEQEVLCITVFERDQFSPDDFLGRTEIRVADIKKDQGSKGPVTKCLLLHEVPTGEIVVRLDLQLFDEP

Assays:
[1] = molecular target: T1, GST-FCHO1 μHD (human) (UniProt O14526); assay: pull-down; GST-μHD fusion proteins on glutathione-Sepharose, cytosolic partner proteins detected by blot; Figures S1E, S3A, S3B, S3E (legends not shown, source of the extract not told); only the target purified
T1 sequence: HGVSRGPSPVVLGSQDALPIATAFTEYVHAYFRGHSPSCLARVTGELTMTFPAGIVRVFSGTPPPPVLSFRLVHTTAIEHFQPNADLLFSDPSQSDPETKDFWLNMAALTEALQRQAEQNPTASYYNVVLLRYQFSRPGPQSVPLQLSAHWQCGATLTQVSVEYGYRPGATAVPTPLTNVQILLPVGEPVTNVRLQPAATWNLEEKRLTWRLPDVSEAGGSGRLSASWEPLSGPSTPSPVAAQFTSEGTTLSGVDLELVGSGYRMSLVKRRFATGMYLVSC

[2] = molecular target: T2, GST-EPS15 (615–637; 623DPF→APA)-FCHO1 μHD chimera (human) (UniProt P42566+O14526); assay: pull-down; HeLa cell lysate with 250 μg (Figure 3F: the indicated amount) of GST or GST-μHD fusion proteins immobilised on glutathione-Sepharose; supernatant and pellet stained or immunoblotted; Figures 1G, 3E, 3F; only the target purified
T2 sequence: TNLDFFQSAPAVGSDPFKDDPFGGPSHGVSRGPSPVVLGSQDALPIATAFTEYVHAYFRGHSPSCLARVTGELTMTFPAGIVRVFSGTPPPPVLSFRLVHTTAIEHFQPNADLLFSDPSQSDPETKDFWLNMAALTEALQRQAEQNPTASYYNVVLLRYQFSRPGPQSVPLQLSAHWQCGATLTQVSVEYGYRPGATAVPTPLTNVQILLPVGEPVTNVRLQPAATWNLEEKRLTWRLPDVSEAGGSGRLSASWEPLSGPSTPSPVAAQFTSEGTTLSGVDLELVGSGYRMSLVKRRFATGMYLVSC

[3] = molecular target: T1, GST-FCHO1 μHD (human); assay: as above
[4] = molecular target: T3, GST-EPS15 (615–637)-FCHO1 μHD chimera (human) (UniProt P42566+O14526); assay: as above
T3 sequence: T2 sequence with A9D, A11F

[5] = molecular target: T4, GST-ΔEPS15 (626–637)-FCHO1 μHD chimera (human) (UniProt P42566+O14526); assay: as above
T4 sequence: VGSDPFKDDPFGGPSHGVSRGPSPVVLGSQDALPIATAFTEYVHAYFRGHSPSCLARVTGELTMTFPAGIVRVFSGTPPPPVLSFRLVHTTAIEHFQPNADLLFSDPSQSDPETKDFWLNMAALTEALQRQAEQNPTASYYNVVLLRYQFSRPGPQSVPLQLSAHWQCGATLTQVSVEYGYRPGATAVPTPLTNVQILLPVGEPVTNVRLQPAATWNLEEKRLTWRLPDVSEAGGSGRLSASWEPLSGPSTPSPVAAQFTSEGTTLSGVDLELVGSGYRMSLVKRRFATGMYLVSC

[6] = molecular target: T5, GST-FCHO1 μHD R872A + S874G (human) (UniProt O14526); assay: pull-down; GST-μHD fusion proteins on glutathione-Sepharose, cytosolic partner proteins detected by blot; Figures S1E, S3A, S3B, S3E (legends not shown, source of the extract not told); only the target purified
T5 sequence: T1 sequence with R264A, S266G

[7] = molecular target: T6, GST-FCHO1 μHD S732D (human) (UniProt O14526); assay: as above
T6 sequence: T1 sequence with S124D

[8] = molecular target: T2, GST-EPS15 (615–637; 623DPF→APA)-FCHO1 μHD chimera (human); assay: pull-down; HeLa cell lysate with 250 μg (Figure 3F: the indicated amount) of GST or GST-μHD fusion proteins immobilised on glutathione-Sepharose; supernatant and pellet stained or immunoblotted; Figures 1G, 3E, 3F; only the target purified; remark: listed apart in the source
[9] = molecular target: T1, GST-FCHO1 μHD (human); assay: as above; remark: listed apart in the source
[10] = molecular target: T7, GST-FCHO1 μHD N735A + R740A (human) (UniProt O14526); assay: as above
T7 sequence: T1 sequence with N127A, R132A

[11] = molecular target: T3, GST-EPS15 (615–637)-FCHO1 μHD chimera (human); assay: as above; remark: listed apart in the source
[12] = molecular target: T4, GST-ΔEPS15 (626–637)-FCHO1 μHD chimera (human); assay: as above; remark: listed apart in the source
[13] = molecular target: T8, FCHO1 μHD A629E (for ITC) (human, UniProt O14526 609-889, A629E); assay: ITC; repeated injection of EPS15 peptides into a temperature-controlled solution of μHD, Nano ITC instrument (TA Instruments); minimum of four runs; both purified
T8 sequence (looked up): T1 sequence with A21E

[14] = molecular target: T9, FCHO1 μHD K877E + R879A (for ITC) (human, UniProt O14526 609-889, K877E | R879A); assay: as above
T9 sequence (looked up): T1 sequence with K269E, R271A

[15] = molecular target: T10, FCHO1 μHD P627D + A629E (for ITC) (human, UniProt O14526 609-889, P627D | A629E); assay: as above
T10 sequence (looked up): T1 sequence with P19D, A21E

Molecule | binding [1] | binding [2] | binding [3] | binding [4] | binding [5] | binding [6] | binding [7] | binding [8] | binding [9] | binding [10] | binding [11] | binding [12] | binding [13] | binding [14] | binding [15]
intersectin 1 (from UniProt Q15811 1-1721) | binds | binds | binds | no binding | binds |  |  |  |  |  |  |  |  |  | 
B1 | binds |  |  |  |  | binds | binds | binds | binds | binds | no binding | binds |  |  | 
NLDFFQSDPFVGSDPFKDDPFGK (peptide, UniProt P42566 616-638) [EPS15 616–638 peptide] |  |  |  |  |  |  |  |  |  |  |  |  | no binding (tested: KD > 300 μM) | no binding (tested: KD > 300 μM) | no binding (tested: KD > 300 μM)

— PMC4921775, “Transient Fcho1/2⋅Eps15/R⋅AP-2 Nanoclusters Prime the AP-2 Clathrin Adaptor for Cargo Binding” (Developmental Cell, 2016)
